Where a chain is given by its changes, count along the chain named. These are yes or no findings as the source states them, for the method shown. In cells and extracts the contact can be indirect. Some binding calls cover weakened binding; strength is not graded here. For part of these data: Where a sequence is shown, tags or fusion partners need not be part of it. Blank lines part the entries; values can stand above or below the substance they belong to.
Tests used:
GST-Arl15-AL (human) [1] = target: T1, GST-Arl15-AL (human) (UniProt Q9NXU5); test: pull-down; bead-immobilized GST-Arl15-AL incubated with HEK293T cell lysates expressing tagged Smads (with or without co-expressed Smad4); 4-14 hr at 4 °C; only the target purified
T1 sequence: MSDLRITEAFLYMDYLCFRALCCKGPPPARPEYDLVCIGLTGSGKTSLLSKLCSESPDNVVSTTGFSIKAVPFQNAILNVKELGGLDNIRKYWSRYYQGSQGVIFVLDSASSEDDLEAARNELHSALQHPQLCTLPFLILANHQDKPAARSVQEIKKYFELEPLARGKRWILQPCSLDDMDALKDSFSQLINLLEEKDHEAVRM

Chains of the proteins cited; added tags and fusions are not shown. Lines headed by an entry give the natural chain unless they say otherwise; changes in a name come on top. A line that says so, or that is headed by a name, gives the form on record, which may keep a tag or linker. Residues count along the entry.
UniProt Q13485: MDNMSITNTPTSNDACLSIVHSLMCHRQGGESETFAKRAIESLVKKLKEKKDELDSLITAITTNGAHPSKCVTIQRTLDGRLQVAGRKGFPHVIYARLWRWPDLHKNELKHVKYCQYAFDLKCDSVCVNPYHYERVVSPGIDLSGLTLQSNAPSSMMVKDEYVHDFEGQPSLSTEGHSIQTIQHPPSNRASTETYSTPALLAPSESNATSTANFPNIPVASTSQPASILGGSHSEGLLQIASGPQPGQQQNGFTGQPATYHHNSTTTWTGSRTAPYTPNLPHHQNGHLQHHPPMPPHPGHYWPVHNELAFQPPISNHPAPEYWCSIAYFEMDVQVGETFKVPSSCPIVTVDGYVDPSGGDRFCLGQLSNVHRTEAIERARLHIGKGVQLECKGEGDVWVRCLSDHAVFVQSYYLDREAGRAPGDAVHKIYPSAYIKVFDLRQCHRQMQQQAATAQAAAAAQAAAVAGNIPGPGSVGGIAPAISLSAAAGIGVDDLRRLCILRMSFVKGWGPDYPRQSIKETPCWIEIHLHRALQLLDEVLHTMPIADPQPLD
GST-Smad4-MH1: residues 18-142 of Q13485
UniProt Q15796: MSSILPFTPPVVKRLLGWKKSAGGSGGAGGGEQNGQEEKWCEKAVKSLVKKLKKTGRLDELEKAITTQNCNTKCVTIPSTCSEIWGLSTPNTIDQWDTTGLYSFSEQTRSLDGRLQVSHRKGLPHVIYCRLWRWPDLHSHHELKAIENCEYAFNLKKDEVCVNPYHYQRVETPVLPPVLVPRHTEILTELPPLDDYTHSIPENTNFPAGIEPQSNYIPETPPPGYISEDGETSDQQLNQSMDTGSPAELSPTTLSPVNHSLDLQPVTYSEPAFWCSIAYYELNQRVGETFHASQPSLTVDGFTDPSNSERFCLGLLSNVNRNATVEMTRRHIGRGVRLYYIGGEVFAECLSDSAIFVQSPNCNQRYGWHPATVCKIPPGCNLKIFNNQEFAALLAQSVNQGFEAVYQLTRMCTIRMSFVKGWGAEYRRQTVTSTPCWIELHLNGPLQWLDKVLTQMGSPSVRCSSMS
GFP-Smad2-SA (Q15796, form named): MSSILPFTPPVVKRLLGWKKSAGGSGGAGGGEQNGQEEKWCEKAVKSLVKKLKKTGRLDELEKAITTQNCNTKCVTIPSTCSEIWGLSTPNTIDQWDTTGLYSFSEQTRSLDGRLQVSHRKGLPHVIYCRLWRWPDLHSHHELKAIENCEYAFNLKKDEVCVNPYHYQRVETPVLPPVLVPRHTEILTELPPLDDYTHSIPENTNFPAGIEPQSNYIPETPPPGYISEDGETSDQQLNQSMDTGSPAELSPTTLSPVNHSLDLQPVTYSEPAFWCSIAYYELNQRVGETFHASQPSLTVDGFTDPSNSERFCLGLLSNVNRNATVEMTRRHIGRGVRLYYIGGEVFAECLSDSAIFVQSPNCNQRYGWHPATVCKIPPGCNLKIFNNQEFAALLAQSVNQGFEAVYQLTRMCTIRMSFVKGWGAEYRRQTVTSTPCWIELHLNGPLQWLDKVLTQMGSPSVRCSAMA
GFP-Smad2-SE (Q15796, form named): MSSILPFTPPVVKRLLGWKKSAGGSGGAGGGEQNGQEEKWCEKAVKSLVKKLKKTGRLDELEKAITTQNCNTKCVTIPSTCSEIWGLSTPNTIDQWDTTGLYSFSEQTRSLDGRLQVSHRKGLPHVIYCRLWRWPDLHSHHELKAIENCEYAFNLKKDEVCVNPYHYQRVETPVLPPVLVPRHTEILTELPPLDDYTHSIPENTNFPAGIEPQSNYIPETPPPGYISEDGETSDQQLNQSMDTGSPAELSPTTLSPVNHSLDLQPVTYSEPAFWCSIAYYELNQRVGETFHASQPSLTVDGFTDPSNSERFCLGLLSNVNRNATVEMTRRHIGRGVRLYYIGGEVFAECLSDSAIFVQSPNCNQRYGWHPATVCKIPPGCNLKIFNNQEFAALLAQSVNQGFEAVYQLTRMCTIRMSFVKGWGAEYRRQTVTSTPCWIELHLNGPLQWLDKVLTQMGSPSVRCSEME

GST-Smad4 = GST-Smad4 (UniProt Q13485); test: pull-down; bead-immobilized GST-Smad4 incubated with HEK293T cell lysates expressing GFP-Smad2 or GFP-Smad1 (WT, SA or SE) with or without overexpressed Arl15-AL; only the target purified
GST-Smad4-MH1 = GST-Smad4-MH1 (UniProt Q13485); test: pull-down; bead-immobilized GST-Smad4-MH1 incubated with HEK293T cell lysates expressing HA-Smad4-MH2 with or without co-expressed Arl15-AL or TN; immunoblotted against HA or Myc-tag; only the target purified
GFP-Smad2-SA = GFP-Smad2-SA (UniProt Q15796); test: co-IP; HEK293T cell lysates co-expressing GFP- and Myc-tagged proteins incubated with anti-GFP antibody, captured on protein A/G beads; with or without overexpressed Arl15-AL (Figure 4f)
Arl15-AL-GFP (human) [2] = target: T2, Arl15-AL-GFP (human) (UniProt Q9NXU5); test: as above
T2 sequence: T1 sequence

GFP-Smad2-SE = GFP-Smad2-SE (UniProt Q15796); test: as above
GST-Arl15-TN (human) = target: T3, GST-Arl15-TN (human) (UniProt Q9NXU5); test: pull-down; bead-immobilized GST-Arl15 (AL or TN) incubated with HEK293T cell lysate (normal culture condition); immunoblotted against endogenous Smads; only the target purified
T3 sequence: T1 sequence with T46N, L86A

Arl15-AL-GFP (human) [3] = target: T2, Arl15-AL-GFP (human); test: co-IP; HEK293T cell lysates transiently expressing C-terminally GFP-tagged small G proteins incubated with GFP-Trap beads; immunoblotted against Smad4 and GFP
Arl15-TN-GFP (human) = target: T4, Arl15-TN-GFP (human) (UniProt Q9NXU5); test: as above
T4 sequence: T1 sequence with T46N, L86A

Arl5b-T30N-GFP (human) = target: T5, Arl5b-T30N-GFP (human) (UniProt Q96KC2); test: as above
T5 sequence: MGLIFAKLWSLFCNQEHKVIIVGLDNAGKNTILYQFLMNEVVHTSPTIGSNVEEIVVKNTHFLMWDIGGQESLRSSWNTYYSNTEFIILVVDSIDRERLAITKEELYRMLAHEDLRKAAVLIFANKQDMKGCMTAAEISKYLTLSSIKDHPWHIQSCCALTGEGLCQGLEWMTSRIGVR

Arl5b-Q70L-GFP (human) = target: T6, Arl5b-Q70L-GFP (human) (UniProt Q96KC2); test: as above
T6 sequence: T5 sequence with N30T, Q70L

GST-Arl15-AL (human) [4] = target: T1, GST-Arl15-AL (human); test: pull-down; bead-immobilized GST-Arl15 (AL or TN) incubated with HEK293T cell lysate (normal culture condition); immunoblotted against endogenous Smads; only the target purified

Substance: GFP-Smad4 D493H (from UniProt Q13485 1-552)
binding (GST-Arl15-AL (human) [1]): binds

Substance: GFP-Smad4 L495P (from UniProt Q13485 1-552)
binding (GST-Arl15-AL (human) [1]): binds

Substance: GFP-Smad4 M447K (from UniProt Q13485 1-552)
binding (GST-Arl15-AL (human) [1]): binds

Substance: GFP-Smad4 R496H (from UniProt Q13485 1-552)
binding (GST-Arl15-AL (human) [1]): binds

Substance: Myc-Smad4 (from UniProt Q13485 1-552)
binding (GFP-Smad2-SA): no binding
binding (Arl15-AL-GFP (human) [2]): binds
binding (GFP-Smad2-SE): binds
binding (GST-Arl15-AL (human) [1]): binds

Substance: endogenous Smad2 (from UniProt Q15796 1-467)
binding (GST-Arl15-TN (human)): no binding

Substance: endogenous Smad4 (from UniProt Q13485 1-552)
binding (Arl15-AL-GFP (human) [3]): binds
binding (Arl15-TN-GFP (human)): no binding
binding (Arl5b-T30N-GFP (human)): no binding
binding (Arl5b-Q70L-GFP (human)): no binding
binding (GST-Arl15-AL (human) [4]): binds
binding (GST-Arl15-TN (human)): no binding

The next lines start with the values.

binding (GST-Arl15-AL (human) [1]): no binding
binding (GST-Smad4): no binding
Substance: GFP-Smad2-SA (from UniProt Q15796 1-467)

binding (GST-Smad4): binds
Substance: GFP-Smad2-SE (from UniProt Q15796 1-467)

binding (GST-Arl15-AL (human) [1]): binds
Substance: GFP-Smad4 R497H (from UniProt Q13485 1-552)

binding (GST-Arl15-AL (human) [1]): binds
Substance: GFP-Smad4-WT (from UniProt Q13485 1-552)

binding (GST-Smad4-MH1): binds
Substance: HA-Smad4-MH2 (from UniProt Q13485 323-552) (domain or fragment)
